The text below walks through data of the supplement of paper PMC11125491.

First the molecules themselves.
B1: UniProt A0EPZ9; numbered along this chain (parent)
chain: MDWQKSLTLIVALTLSRGIGLKNDLPWKLKSDMMFFSRVTSGLLVTRSTGQMNVVLMGRKTWESLPAHSRPLKNRINVVISRQEVLDLGGGAYHARSLDDALALLSQIYDSTSKIQLNRVFVIGGGELCKAAMEHSRLNRIIATVIHNEVDCDVFFPIDFRSSQSCLPWRKQDHSVLEAWVGSKVPQGKINENGFIYEFEMWIRDI

± gives the standard deviation of the averaged measurements. Growth of baker's yeast expressing single-residue variants of Pneumocystis jirovecii dihydrofolate reductase in 8.8 or 44 µM methotrexate (about 75% and 90% inhibition of the wild type). Selection coefficient per generation; 0 = like wild type, above 0 = less sensitive, below 0 = more sensitive or loss of function. No active / inactive call per row; the paper calls resistant above 0.220 (8.8 µM) or 0.243 (44 µM) together with a significance test. At 44 µM about 15% of codons end with one read or none, so the lowest values are floors (replicate rank correlation 0.74; 0.94 at 8.8 µM).

The series covers variants of B1. The series is described as follows: selection coefficient against synonymous wild-type codons (log2 per generation); higher = faster growth than wild type. The following applies: with Saccharomyces cerevisiae carrying the variant on a plasmid. How it is done: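 Pooled growth of yeast carrying single-residue variants of P. jirovecii dihydrofolate reductase (own DFR1 gene intact), two passages at 30 °C, three cultures, sequenced before and after. Codons with under 15 starting reads are left out; codons of one change are averaged.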

In the case of MDWQKSLTLIVALTLSRGIGLKNDLPWKLKSDMMFFSRVTSGLLVTRSTGQMNVVLMGRKTWESLPAHSRPLKNRINVVISRQEVLDLGGGAYHARSLDDALALLSQIYDSTSKIQLNRVFVIGGGELCKAAMEHSRLNRIIATVIHNEVDCDVFFPIDFRSSQSFLPWRKQDHSVLEAWVGSKVPQGKINENGFIYEFEMWIRDI [C166F], the “selection coefficient against synonymous wild-type codons (log2)” value (“selection coefficient … (log2)” below) is, setting by setting: (methotrexate 8.8 µM) -0.134 ± 0.06; (methotrexate 44 µM) -0.0889 ± 0.098.

Consider MDWQKSLTLIVALTLSRGIGLKNDLPWKLKSDMMFFSRVTSGLLVTRSTGQMNVVLMGRKTWESLPAHSRPLKNRINVVISRQEVLDLGGGAYHARSLDDALALLSQIYDSTSKIQLNRVFVIGGGEQCKAAMEHSRLNRIIATVIHNEVDCDVFFPIDFRSSQSCLPWRKQDHSVLEAWVGSKVPQGKINENGFIYEFEMWIRDI [L128Q], for which the “selection coefficient … (log2)” value was -0.687 ± 0.1 (methotrexate 8.8 µM) and -0.227 ± 0.068 (methotrexate 44 µM).

MDWQKSLTLIVALTLSRGIGLKNDLPWKLYSDMMFFSRVTSGLLVTRSTGQMNVVLMGRKTWESLPAHSRPLKNRINVVISRQEVLDLGGGAYHARSLDDALALLSQIYDSTSKIQLNRVFVIGGGELCKAAMEHSRLNRIIATVIHNEVDCDVFFPIDFRSSQSCLPWRKQDHSVLEAWVGSKVPQGKINENGFIYEFEMWIRDI [K30Y]: the “selection coefficient … (log2)” value is, setting by setting: (methotrexate 8.8 µM) 0.0488 ± 0.06; (methotrexate 44 µM) -0.128 ± 0.093.

Regarding MDWQKSLTLIVALTLSRGIGLKNDLPWKLKSDMMFFSRVTSGLLVTRSTGQMNVVLMGRKTWESLPAHSRPLKNRINVVISRQEVLDLGGGAYHARSLDDALALLSQIYDSTSKIQLNRVFVIGGGELCKAAMEHSRLNRIIATVIHNEVDCDVFFPIDFRSSQSCLPKRKQDHSVLEAWVGSKVPQGKINENGFIYEFEMWIRDI [W169K], the “selection coefficient … (log2)” value by setting is: (methotrexate 8.8 µM) -0.728 ± 0.16; (methotrexate 44 µM) -0.395 ± 0.044.

In the case of MDWQKSLTLIVALTLSRGIGLKNDLPWKLKSDMMFFSRVTSGLLVTRSTGQMNVVLMGRKTWESLPAHSRPLKNRINVVISRQEVLDLGGGAYHARSLDDALALLSQIYDSLSKIQLNRVFVIGGGELCKAAMEHSRLNRIIATVIHNEVDCDVFFPIDFRSSQSCLPWRKQDHSVLEAWVGSKVPQGKINENGFIYEFEMWIRDI [T112L], the “selection coefficient … (log2)” value (methotrexate 8.8 µM) is -0.3 ± 0.093 and the “selection coefficient … (log2)” value (methotrexate 44 µM) is -0.141 ± 0.17.

MDWQKSLTLMVALTLSRGIGLKNDLPWKLKSDMMFFSRVTSGLLVTRSTGQMNVVLMGRKTWESLPAHSRPLKNRINVVISRQEVLDLGGGAYHARSLDDALALLSQIYDSTSKIQLNRVFVIGGGELCKAAMEHSRLNRIIATVIHNEVDCDVFFPIDFRSSQSCLPWRKQDHSVLEAWVGSKVPQGKINENGFIYEFEMWIRDI [I10M]: the “selection coefficient … (log2)” value runs as follows: (methotrexate 8.8 µM) 0.08 ± 0.029; (methotrexate 44 µM) 0.187 ± 0.036.

For the variant MDWQKSLTLIVALTLSRGIGLKNDLPWKLKSDMMFFSRVTSGLLVTRSTGQMNVVLMGRKTWESLPAHSRPLKNRINVVISRQEVLDLGGGAYHARSDDDALALLSQIYDSTSKIQLNRVFVIGGGELCKAAMEHSRLNRIIATVIHNEVDCDVFFPIDFRSSQSCLPWRKQDHSVLEAWVGSKVPQGKINENGFIYEFEMWIRDI [L98D], the “selection coefficient … (log2)” value is, setting by setting: (methotrexate 8.8 µM) -0.673 ± 0.02; (methotrexate 44 µM) 0.172 ± 0.54.

For MPWQKSLTLIVALTLSRGIGLKNDLPWKLKSDMMFFSRVTSGLLVTRSTGQMNVVLMGRKTWESLPAHSRPLKNRINVVISRQEVLDLGGGAYHARSLDDALALLSQIYDSTSKIQLNRVFVIGGGELCKAAMEHSRLNRIIATVIHNEVDCDVFFPIDFRSSQSCLPWRKQDHSVLEAWVGSKVPQGKINENGFIYEFEMWIRDI [D2P], the “selection coefficient … (log2)” value turned out to be 0.0328 ± 0.065 (methotrexate 8.8 µM) and 0.0258 ± 0.16 (methotrexate 44 µM).

As to MDWQKSLTLIVALTLSRGIGLKNDLPWKLKSDMMFDSRVTSGLLVTRSTGQMNVVLMGRKTWESLPAHSRPLKNRINVVISRQEVLDLGGGAYHARSLDDALALLSQIYDSTSKIQLNRVFVIGGGELCKAAMEHSRLNRIIATVIHNEVDCDVFFPIDFRSSQSCLPWRKQDHSVLEAWVGSKVPQGKINENGFIYEFEMWIRDI [F36D], the “selection coefficient … (log2)” value is -0.376 ± 0.14 (methotrexate 8.8 µM) and -0.00599 ± 0.085 (methotrexate 44 µM).

As to MDWQKSLTLIVALTLSRGIGLKNDLPWKPKSDMMFFSRVTSGLLVTRSTGQMNVVLMGRKTWESLPAHSRPLKNRINVVISRQEVLDLGGGAYHARSLDDALALLSQIYDSTSKIQLNRVFVIGGGELCKAAMEHSRLNRIIATVIHNEVDCDVFFPIDFRSSQSCLPWRKQDHSVLEAWVGSKVPQGKINENGFIYEFEMWIRDI [L29P], the “selection coefficient … (log2)” value was 0.0794 ± 0.032 (methotrexate 8.8 µM) and 0.113 ± 0.06 (methotrexate 44 µM).

Regarding MDWQKSLTLIVALTLSRGIGLKNDLPWKLKSDMMFFSRVTSGLLVTRSTGQMNVVLMGRKTWESLPAHSRPLKNRINVVISRQEVLDLGGGAYHARSLDDALALLSQIYDSTSKIQLNRVFVIGGGELCKAAMEHSRLNRIIATVIHNEVDCDVFFPIDFRSSQSCLPWRKQDHSVLEAWVGSKMPQGKINENGFIYEFEMWIRDI [V185M], the “selection coefficient … (log2)” value is, setting by setting: (methotrexate 8.8 µM) -0.0662 ± 0.015; (methotrexate 44 µM) -0.0922 ± 0.052.

MDWQKSLVLIVALTLSRGIGLKNDLPWKLKSDMMFFSRVTSGLLVTRSTGQMNVVLMGRKTWESLPAHSRPLKNRINVVISRQEVLDLGGGAYHARSLDDALALLSQIYDSTSKIQLNRVFVIGGGELCKAAMEHSRLNRIIATVIHNEVDCDVFFPIDFRSSQSCLPWRKQDHSVLEAWVGSKVPQGKINENGFIYEFEMWIRDI [T8V]: the “selection coefficient … (log2)” value reads like this: (methotrexate 8.8 µM) -0.135 ± 0.055; (methotrexate 44 µM) -0.136 ± 0.041.

As for MDWQKSLTLIVALTLSRGIGLKNDLPWKLKSDMMFFSRVTFGLLVTRSTGQMNVVLMGRKTWESLPAHSRPLKNRINVVISRQEVLDLGGGAYHARSLDDALALLSQIYDSTSKIQLNRVFVIGGGELCKAAMEHSRLNRIIATVIHNEVDCDVFFPIDFRSSQSCLPWRKQDHSVLEAWVGSKVPQGKINENGFIYEFEMWIRDI [S41F], the “selection coefficient … (log2)” value was -0.223 ± 0.066 (methotrexate 8.8 µM) and -0.113 ± 0.09 (methotrexate 44 µM).

MDWQKSLTLIVALTLSRGIGLKNDLPWKLKSDMMFFSRVTSGLLVTRSTGQMNVVLMGRKTWESLPAHSRPLKNRINVVISRQEVLDLGGGAYHARSLDDALALLSQIEDSTSKIQLNRVFVIGGGELCKAAMEHSRLNRIIATVIHNEVDCDVFFPIDFRSSQSCLPWRKQDHSVLEAWVGSKVPQGKINENGFIYEFEMWIRDI [Y109E]: the “selection coefficient … (log2)” value reads like this: (methotrexate 8.8 µM) 0.0811 ± 0.022; (methotrexate 44 µM) 0.0603 ± 0.1.

For MDWQKSLTLIVALTLSRGIGLKNDLPWKLKSDMMFFSRVTSGLLVTRSTGQMNVVLMGRKTWESLPAHSRPLKNRINVVISRQEVLDLGGGAYHARSLDDALALLSQIYDSTSKIQLNRVFVIGGGELCKAAMEHSRLNRIIATVIHNEVDCDVFFPIDFRSSQSCKPWRKQDHSVLEAWVGSKVPQGKINENGFIYEFEMWIRDI [L167K], the “selection coefficient … (log2)” value by setting is: (methotrexate 8.8 µM) -0.024 ± 0.041; (methotrexate 44 µM) -0.117 ± 0.12.
